The supplement of paper PMC9151546
Most values come without repeats; read them as rough.

What was measured:
CHO-K1 [1] = assay: relative survival (nuclei to bead ratio vs DMSO control) (% of vehicle control); higher = more surviving cells
Procedure: (§1)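 Flow-cytometric in vitro micronucleus assay (Litron MicroFlow) in CHO-K1 cells in 96-well plates, 19 concentrations (4.5-200 µM, n=1 per concentration). Without S9, cells were exposed for 24 h and sampled at 48 h. With Aroclor 1254-induced rat liver S9, cells were exposed for 3-4 h and sampled at 27-28 h. Read-outs are %MN and %hypodiploid nuclei relative to nucleated events, and relative survival as the nuclei-to-bead ratio versus the 1% DMSO vehicle control (x100).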

CHO-K1 [2] = assay: micronucleus frequency (% of nucleated events); higher = more micronuclei (genotoxic)
CHO-K1 [3] = assay: hypodiploid nuclei frequency (% of nucleated events); higher = more hypodiploid events (aneugenic)
Procedure: as §1
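Throughout, for hypodiploid nuclei frequency (% of nucleated events): hypodiploid nuclei gated on a flow cytometer with 488 nm excitation after SYTOX Green staining, cultures at 37 °C, positive controls vinblastine without S9 and cyclophosphamide with S9.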
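Throughout, for micronucleus frequency (% of nucleated events): cells lysed with nuclei stained by SYTOX Green, then micronucleus-gated events counted against nucleated events by flow cytometry with 488 nm excitation.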
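Throughout, for relative survival (nuclei to bead ratio vs DMSO control): Lysed-cell nuclei stained with SYTOX Green and counted against counting beads by flow cytometry at 488 nm excitation, with vinblastine (no S9) and cyclophosphamide (plus S9) as positive controls.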

OCCOCCO [Diethylene glycol]
Conditions	hypodiploid nuclei frequency, CHO-K1 [3] [%]	micronucleus frequency, CHO-K1 [2] [%]	relative survival, CHO-K1 [1]
concentration: 4.48 (µM), S9 metabolic activation: with S9, exposure time: 3-4 hours	0.16	2.62	96.3
concentration: 4.48 (µM), S9 metabolic activation: without S9, exposure time: 24 hours	0.64	1.86	84.1
concentration: 5.6 (µM), S9 metabolic activation: with S9, exposure time: 3-4 hours	0.3	2.14	105
concentration: 5.6 (µM), S9 metabolic activation: without S9, exposure time: 24 hours	0.68	1.88	88
concentration: 7 (µM), S9 metabolic activation: with S9, exposure time: 3-4 hours	0.32	1.56	86.3
concentration: 7 (µM), S9 metabolic activation: without S9, exposure time: 24 hours	0.56	1.62	86.2
concentration: 8.75 (µM), S9 metabolic activation: with S9, exposure time: 3-4 hours	0.26	1.82	112
concentration: 8.75 (µM), S9 metabolic activation: without S9, exposure time: 24 hours	0.42	2.06	73.9
concentration: 10.9 (µM), S9 metabolic activation: with S9, exposure time: 3-4 hours	0.3	1.78	90.6
concentration: 10.9 (µM), S9 metabolic activation: without S9, exposure time: 24 hours	0.5	1.78	97.6
concentration: 13.7 (µM), S9 metabolic activation: with S9, exposure time: 3-4 hours	0.26	1.52	90.6
concentration: 13.7 (µM), S9 metabolic activation: without S9, exposure time: 24 hours	0.56	1.8	99
concentration: 17.1 (µM), S9 metabolic activation: with S9, exposure time: 3-4 hours	0.4	2.6	83.7
concentration: 17.1 (µM), S9 metabolic activation: without S9, exposure time: 24 hours	0.48	2.42	100
concentration: 21.4 (µM), S9 metabolic activation: with S9, exposure time: 3-4 hours	0.4	2.22	120
concentration: 21.4 (µM), S9 metabolic activation: without S9, exposure time: 24 hours	0.92	1.96	92.3
concentration: 26.7 (µM), S9 metabolic activation: with S9, exposure time: 3-4 hours	0.36	2.06	151
concentration: 26.7 (µM), S9 metabolic activation: without S9, exposure time: 24 hours	0.7	2.06	109
concentration: 33.4 (µM), S9 metabolic activation: with S9, exposure time: 3-4 hours	0.22	2	146
concentration: 33.4 (µM), S9 metabolic activation: without S9, exposure time: 24 hours	0.7	2.3	109
concentration: 41.7 (µM), S9 metabolic activation: with S9, exposure time: 3-4 hours	0.18	2.02	118
concentration: 41.7 (µM), S9 metabolic activation: without S9, exposure time: 24 hours	0.7	1.92	109
concentration: 52.2 (µM), S9 metabolic activation: with S9, exposure time: 3-4 hours	0.14	1.52	117
concentration: 52.2 (µM), S9 metabolic activation: without S9, exposure time: 24 hours	0.62	2.04	116
concentration: 65.2 (µM), S9 metabolic activation: with S9, exposure time: 3-4 hours	0.28	1.94	111
concentration: 65.2 (µM), S9 metabolic activation: without S9, exposure time: 24 hours	0.58	1.82	115
concentration: 81.5 (µM), S9 metabolic activation: with S9, exposure time: 3-4 hours	0.38	1.5	112
concentration: 81.5 (µM), S9 metabolic activation: without S9, exposure time: 24 hours	0.62	2.06	123
concentration: 102 (µM), S9 metabolic activation: with S9, exposure time: 3-4 hours	0.24	1.7	123
concentration: 102 (µM), S9 metabolic activation: without S9, exposure time: 24 hours	0.84	2.76	122
concentration: 127 (µM), S9 metabolic activation: with S9, exposure time: 3-4 hours	0.26	1.32	103
concentration: 127 (µM), S9 metabolic activation: without S9, exposure time: 24 hours	0.6	2.7	135
concentration: 159 (µM), S9 metabolic activation: with S9, exposure time: 3-4 hours	0.38	2.26	94.5
concentration: 159 (µM), S9 metabolic activation: without S9, exposure time: 24 hours	0.96	3.34	111
concentration: 199 (µM), S9 metabolic activation: with S9, exposure time: 3-4 hours	0.46	2.2	78.5
concentration: 199 (µM), S9 metabolic activation: without S9, exposure time: 24 hours	1.02	2.9	120
